For 84 variants, self-cleavage results are on record in the RNAGym collection of RNA variant scans (doi:10.7554/elife.90254).

First the molecules themselves.
B1: OR4K15 (parent)
chain: GUUAACGGUCAUAGGCCAUGGAAACUAGGAGCACCAUUUCGCUGCCAGUGAAGAAAUGAACAAAGAAAAUCUGGGCCAGGCAGGCAUCAAAAGAAAUAGUCUUGCGCUCAACCAGAAAGUCUGUAAUCAUUUUAAGGGUA

Read counts are not given, so values of variants with three or more changes are uncertain.

The variants in this data set derive from B1. Briefly: self-cleavage, relative activity (ratio to wild type); higher = more cleavage; in vitro, sequencing; the parent is a self-cleaving ribozyme.
Consider U39C A47G A54G, for which the self-cleavage is 0.58.
As to U38C A92G U130C, the self-cleavage came out at 1.33.
Consider U37C A91U A114G, for which the self-cleavage amounted to 0.15.
Turning to U37C U43C A56C A114U, the self-cleavage was 0.03.
Regarding U37C A59G U131C, the self-cleavage turned out to be 1.43.
Take U38C A68G A90G A116G: the self-cleavage worked out at 0.56.
For the variant U37C U43C A68G A69G A116G, the self-cleavage came to 0.29.
As to U38C A68G A86G A117G A118G, the self-cleavage is 2.32.
As to U39A A52G A90G, the self-cleavage was 0.87.
As for U38C A52G A59G A63G A67G U108C U127C, the self-cleavage was found to be 0.01.
Turning to U37C U72C U103A, the self-cleavage is 0.07.
Consider U39C A51G C76A A117G, for which the self-cleavage was determined as 0.12.
On to U38C A68G A98U A116G, for which the self-cleavage worked out at 1.85.
Next, U38C A63G A116G U124C U139C: 0.4; U37C A92G U102A U131C: 0.56; U38A U87C A111G U122C: 0.
To U38C A60G U72C belongs 0.08.
For the variant U39A A54G A90G, the self-cleavage came to 1.27.
For the variant U38C A67G A96G, the self-cleavage came to 0.82.
For the variant U37G A60G A67U A69G A94G A114U, the self-cleavage amounted to 0.02.
Regarding U38C A68G U72C, the self-cleavage was 0.44.
U38C U100A U132C: the self-cleavage turned out to be 0.58.
Next, U37C A60G U108C: 0.01; U39A U49C A56G A96C: 0.81; U38C A55G A92G U127C: 0.95.
Take U38C A62G G75A: the self-cleavage turned out to be 0.17.
In the case of U38A G48A A126U U127C, the self-cleavage was found to be 0.66.
In the case of U38C U43C A78U U102C U130C, the self-cleavage came out at 1.
U37C A64G A82U: the self-cleavage is 0.19.
As for U38C U103C U124A, the self-cleavage came to 0.37.
Regarding U38C A59G U70A U100A A111G, the self-cleavage stood at 0.
As to U38C A69G U131C, the self-cleavage is 1.2.
U37C C40A A54G A67G G75C: the self-cleavage came out at 0.14.
For U39C A51G A59G A68G, the self-cleavage stood at 0.84.
As to U37C U43A A135C, the self-cleavage was determined as 1.82.
For the variant U38C A51G A78G A92G A95G A126G, the self-cleavage stood at 0.12.
In the case of U37C A68G A78U, the self-cleavage turned out to be 0.43.
With U38C A56G A59U, the self-cleavage is 1.37.
To U38A G50A A52G belongs 1.63; to U39A A68G U87C A91G U124A, 0.29; to U37C A94U U122C U130C, 0.62.
In the case of U38C U72C A90G A94G U102C U124A, the self-cleavage turned out to be 0.15.
On to U38C A54G A64G A78U, for which the self-cleavage came out at 0.4.
Turning to U39C A54G A68G U97C, the self-cleavage worked out at 0.35.
In the case of U38A A60G U102C, the self-cleavage turned out to be 2.19.
Next, U39A A55G A86U U103C U139C: 0.74; U37C A67G A117U: 0.57.
For the variant U38C A69G U124C, the self-cleavage was 0.44.
As to U39A A60G A64G A68G A117G, the self-cleavage was 1.61.
To U38C A62G A82U A95G belongs 0.34; to U38C A60G U70C, 0.94.
To U38C A60G A66G belongs 1.48; to U38C A54G A59G G75A, 0.31.
In the case of U37C U72A C76U U100C A126G, the self-cleavage is 0.11.
As to U38C A78U A126G, the self-cleavage was 0.54.
Next, U37C A59G A69C: 1.07.
Turning to U38C C40U U49G A54G C113U, the self-cleavage is 0.06.
For the variant U39A A89U U108C, the self-cleavage was 0.03.
As for U38C U49G A67G U102C U124C, the self-cleavage is 1.37.
On to U37C U39C A125G, for which the self-cleavage is 0.64.
On to U38C U57C A60U A68G A90G U124C, for which the self-cleavage was determined as 0.71.
As for U37C U38C A67G C85U, the self-cleavage was found to be 0.73.
To U38C A82G U122C belongs 0.27; to U38C U43A A60G U72C A78G A92G A94G, 0.16; to U37C G79A A90G, 0.03.
Next, U39A A59U A96G: 1.96; U38C G83A A90G: 1.46.
For U38G A55G U72C, the self-cleavage was 0.34.
With U38C A86U U87C A98G U122A, the self-cleavage was 0.08.
Next, U37C A117U U127A: 1.29; U39A A82U A117U: 0.24.
To U39A A68U A140G belongs 1.94; to U38C U72A U108A U122C, 0.01.
Turning to U38A A82G C128A U130C, the self-cleavage amounted to 0.26.
On to U38C U43C U108A, for which the self-cleavage worked out at 0.01.
Turning to U39A G48A A59G A89G U100C, the self-cleavage turned out to be 1.9.
For the variant U38G U49C U108A U122A, the self-cleavage is 0.01.
On to U37C C71U U108C U130C, for which the self-cleavage turned out to be 0.01.
On to U38C A68G A140G, for which the self-cleavage stood at 0.64.
For U39A A62G A63U A69G A91G A125G, the self-cleavage came out at 0.43.
With U38C A90G A94U, the self-cleavage turned out to be 1.49.
In the case of U38C A51G A66U A135G, the self-cleavage turned out to be 1.83.
As to U38C A89G A92G, the self-cleavage amounted to 1.91.
Turning to U38C U70C U103C, the self-cleavage turned out to be 0.82.
